The subject of the test is neuraminidase. The test can be described thus: Immunofluorescence assay of neuraminidase in H1N1-infected MDCK cells. The settings on record: 10, 20, and 40 µM, 24 h.

SMILES strings stand for the structures.

For `Oc1cc(O)cc(Oc2c(O)cc(O)c3c2Oc2c(O)cc4oc5c(Oc6cc(O)cc(O)c6)c(O)cc(O)c5c4c2O3)c1` [Compound 12, Phlorofucofuroeckol A], the “neuraminidase protein expression in viral-infected cell cytoplasm (fluorescence images)” value is “decreased neuraminidase protein expression”.

Source of the values: publication PMC6471242, “Dereplication by High-Performance Liquid Chromatography (HPLC) with Quadrupole-Time-of-Flight Mass Spectroscopy (qTOF-MS) and Antiviral Activities of Phlorotannins from Ecklonia cava” (Marine Drugs, 2019).
